Experimental data reported in PubChem BioAssay (NCATS).
The shares of active, inactive and inconclusive entries below differ from those in the screen. For part of these data: Potencies beside an inconclusive call are fits to weak or partial responses and may not hold up. The source made the active and inactive calls. Unless noted, calls come from the whole dose curve; as a rule, active = well fitted curve in the direction sought with a large enough effect; inconclusive = small, poorly fitted or top-dose-only effect, or another doubt; inactive = no such curve, though single readings can be large; an effect the other way counts as inactive or inconclusive.

Biological target: 3',5'-cyclic-AMP phosphodiesterase 4B (Homo sapiens) (UniProt Q07343)
Sequence of UniProt Q07343 (Q07343 whole entry, looked up): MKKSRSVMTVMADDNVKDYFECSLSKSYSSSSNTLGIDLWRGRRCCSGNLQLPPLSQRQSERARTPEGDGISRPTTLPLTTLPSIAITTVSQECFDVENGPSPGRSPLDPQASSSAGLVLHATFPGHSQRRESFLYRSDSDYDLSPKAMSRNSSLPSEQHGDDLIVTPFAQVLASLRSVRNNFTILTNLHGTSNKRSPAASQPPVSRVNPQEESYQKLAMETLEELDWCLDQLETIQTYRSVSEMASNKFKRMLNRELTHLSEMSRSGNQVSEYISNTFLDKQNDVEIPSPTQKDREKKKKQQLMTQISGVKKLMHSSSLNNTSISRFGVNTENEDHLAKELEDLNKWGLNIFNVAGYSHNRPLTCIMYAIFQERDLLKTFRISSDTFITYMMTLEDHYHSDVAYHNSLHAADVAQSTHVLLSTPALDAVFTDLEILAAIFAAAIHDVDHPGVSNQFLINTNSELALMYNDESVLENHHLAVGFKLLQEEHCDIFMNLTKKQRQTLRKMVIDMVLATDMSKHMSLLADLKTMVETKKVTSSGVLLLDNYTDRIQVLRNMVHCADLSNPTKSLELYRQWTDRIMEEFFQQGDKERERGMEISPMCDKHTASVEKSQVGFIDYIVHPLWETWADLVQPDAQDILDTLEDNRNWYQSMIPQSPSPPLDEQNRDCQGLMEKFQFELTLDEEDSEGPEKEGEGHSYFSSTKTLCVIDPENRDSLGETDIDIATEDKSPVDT
Experiment: qHTS Assay for Inhibitors of PDE-IV (AID 607; active = well fitted activation curve with a large enough effect in the main read-out, with a control signal flat, not every such curve was filed as active; inconclusive = small, poorly fitted or top-dose-only effect, or effect the other way, or a change in a side signal; note: potency is the fitted concentration of half-maximal effect; for activation (PDE inhibition): % of control where 0% means no effect)
Conditions: HEK293 ACTOne CNG channel cells, membrane potential fluorescence; activation (PDE inhibition): at 22.9 µM (top of the series)
How it was run: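 Cell-based read-out of cAMP via a modified cyclic nucleotide-gated channel and membrane potential dye (535/590 nm) in HEK293 cells expressing PDE4 endogenously. Compounds tested up to 22.9 uM final; 100 uM RO 20-1724 reference.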
Tags give direction and shape of the fitted curve.

| SMILES | Potency |
| --- | --- |
| NCCC[C@@H](CC(=O)N[C@@H]1CCCC[C@H]1C(=O)N[C@H](CC(=O)N[C@@H](CCC(=O)O)CC(=O)O)Cc1ccccc1)NC(=O)C[C@H](Cc1c[nH]c2ccccc12)NC(=O)[C@@H]1CNCC[C@H]1N | active: 1.58 µM |
| O=[N+]([O-])c1ccc2cn[nH]c2c1 | inconclusive: 19 µM [inhibitor, single point] |
| CC(C)NC(=O)N1CC2(CCN(C(=O)c3cc(C(F)(F)F)cc(C(F)(F)F)c3)CC2)C1 | inactive |
| O=C1C=CC2=C3c4cc(O)c(O)cc4C[C@@]3(O)COC2=C1O | inconclusive: 19 µM [inhibitor, single point] |
| CSc1cc2c(cc1C(F)(F)F)N(C(=O)Nc1cccnc1)CC2 | inconclusive: 19 µM [inhibitor, single point] |
| FC(F)(F)c1ccccc1-c1nccc(NCc2cccs2)n1 | inconclusive: 10 µM [activator, partial curve] |
| NC1(C(=O)O)C[C@@H](C(=O)O)[C@H](C(=O)O)C1 | inconclusive: 19 µM [inhibitor, single point] and inactive |
| c1ccc2c(-n3ccnc3)nc(-c3ccoc3)nc2c1 | inconclusive: 10 µM [activator, partial curve] |
| COc1ccc(-c2coc3ccc(O[C@@H]4O[C@@H](COC(C)=O)[C@@H](OC(C)=O)[C@@H](OC(C)=O)[C@H]4OC(C)=O)c(OC(C)=O)c3c2=O)cc1 | inconclusive: 19 µM [inhibitor, single point] |
| COC(=O)[C@@H]1[C@@H]2C[C@H]3c4[nH]c5cc(OC)ccc5c4CCN3C[C@@H]2C[C@H](OC(=O)c2cc(OC)c(OC)c(OC)c2)[C@H]1OC | inactive |
| NCCCCCCNS(=O)(=O)c1cccc2ccccc12 | inactive |

System: not listed separately
Experiment: qHTS Assay for Identification of Small Molecule Antagonists for Thrombopoietin (TPO) Signaling Pathway (AID 918); note: nearly all actives have a fitted effect of over 60% in size
Conditions: TPO-dependent cell signaling reporter, antagonist mode; activity change, negative = inhibition: at 38.5 µM (top of the series)
How it was run: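 Luminescence read-out: GPIIb-promoter luciferase in Ba/F3 cells carrying human TPO receptor. Compounds added with 26 pM TPO (EC50), 24 hrs, 37 C, 5% CO2; cells deprived of IL-3 overnight beforehand. Inhibition of signal scored.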

| SMILES | activity change, negative = inhibition |
| --- | --- |
| O=C(c1ccccc1)c1ccc2n1CC[C@H]2C(=O)O | inconclusive: -11.6% [phenotype inactive] |
| CC[C@]1(C)CC(=O)NC1=O | inconclusive: -4.28% [phenotype inactive] |
| CCCN[C@@H](C)C(=O)Nc1ccccc1C | inconclusive: -22.5% [phenotype inactive] |
| CCn1cc(C(=O)O)c(=O)c2cc(F)c(N3CCN[C@@H](C)C3)c(F)c21 | inconclusive: -19.3% [phenotype inactive] |

Biological target: Ubiquitin carboxyl-terminal hydrolase 1 (Homo sapiens) (UniProt O94782)
Sequence of UniProt O94782 (O94782 whole entry, looked up): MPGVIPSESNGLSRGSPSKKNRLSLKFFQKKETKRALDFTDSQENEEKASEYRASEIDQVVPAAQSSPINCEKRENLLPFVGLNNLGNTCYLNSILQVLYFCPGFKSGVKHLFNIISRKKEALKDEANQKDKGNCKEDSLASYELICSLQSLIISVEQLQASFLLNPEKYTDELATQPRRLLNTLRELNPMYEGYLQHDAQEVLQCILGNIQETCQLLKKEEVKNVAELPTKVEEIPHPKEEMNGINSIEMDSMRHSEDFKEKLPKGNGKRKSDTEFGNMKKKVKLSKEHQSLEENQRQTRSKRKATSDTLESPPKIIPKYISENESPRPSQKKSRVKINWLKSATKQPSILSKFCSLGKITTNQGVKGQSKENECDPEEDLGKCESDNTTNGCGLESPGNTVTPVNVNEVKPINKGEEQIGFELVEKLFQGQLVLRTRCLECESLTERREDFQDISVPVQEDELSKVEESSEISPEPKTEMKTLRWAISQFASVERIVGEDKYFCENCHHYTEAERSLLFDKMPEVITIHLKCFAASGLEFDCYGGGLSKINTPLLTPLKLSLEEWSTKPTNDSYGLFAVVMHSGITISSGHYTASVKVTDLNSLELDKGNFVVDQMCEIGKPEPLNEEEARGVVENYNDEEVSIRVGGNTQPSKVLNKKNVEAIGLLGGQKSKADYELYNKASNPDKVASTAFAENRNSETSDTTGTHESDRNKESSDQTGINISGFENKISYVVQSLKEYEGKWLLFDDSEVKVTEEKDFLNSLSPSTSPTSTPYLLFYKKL
Experiment: Inhibitors of USP1/UAF1: Pilot qHTS (AID 504865); note: potency is the fitted concentration of half-maximal effect;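 note: rhodamine fluorescence freed from ubiquitin-rhodamine substrate followed over time; nearly all actives have a fitted effect of over 35% in size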; for activity change, negative = inhibition: top concentration of the series differs between compounds; % is set by controls: 0 for no effect and ±100 for the full control effect
Conditions: purified USP1/UAF1, Ub-rhodamine cleavage fluorescence; series mostly up to 54.9 µM
How it was run: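 USP1/UAF1 complex at 1 nM preincubated 15 min at room temperature with compound, then Ub-Rho substrate added at 150 nM final. Fluorescence (480/540 nm) read kinetically in 50 mM HEPES pH 7.8, 0.5 mM EDTA, 1 mM TCEP, 0.1 mg/ml BSA, 0.01% Tween-20.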

| SMILES | Potency |
| --- | --- |
| COc1cccc(-c2nccc(NCc3cccc(C)c3)n2)c1 | active: 35.5 µM |
| CSc1cc2c(cc1C(F)(F)F)N(C(=O)Nc1cccnc1)CC2 | inconclusive: 28.2 µM [inhibitor, partial curve, poor fit] |
| CS(=O)(=O)Nc1cccc(-c2ccc3ncnc(NC4CCNCC4)c3c2)c1 | inactive |
| Cc1c(C(=O)NN2CCOCC2)nn(-c2ccc(Cl)cc2Cl)c1-c1ccc(I)cc1 | inconclusive: 39.8 µM [inhibitor, partial curve] |
| COc1ccc2[nH]cc(CCNc3cc(-c4ccccc4C(F)(F)F)ncn3)c2c1 | inconclusive: 89.1 µM [inhibitor, partial curve] |
| CCC(=O)OCC(=O)[C@@]1(OC(=O)CC)[C@H](C)C[C@@H]2[C@H]3CCC4=CC(=O)C=C[C@]4(C)[C@]3(Cl)[C@@H](O)C[C@@]21C | inconclusive: 20 µM [inhibitor, partial curve, poor fit] |
| FC(F)(F)c1ccccc1-c1nccc(NCc2cccs2)n1 | active: 11.2 µM |
| CCCCCCCCCCCCC(=O)N1CCCC[C@H]1CNC(=O)[C@@H](N)CCCCN | active: 50.1 µM |
| NC1(C(=O)O)C[C@@H](C(=O)O)[C@H](C(=O)O)C1 | inconclusive: 20 µM [inhibitor, partial curve, poor fit] and inactive |
| c1ccc2c(-n3ccnc3)nc(-c3ccoc3)nc2c1 | inconclusive: 39.8 µM [inhibitor, full curve] |
| COc1cc2c(cc1OC)C(c1ccc(N)cc1)=NNC(=O)C2 | inconclusive: 56.2 µM [inhibitor, partial curve, poor fit] |
| Cc1nc2cnc(Nc3ccccc3)nc2n(CCC#N)c1=O | inactive |
| COC(=O)[C@@H]1[C@@H]2C[C@H]3c4[nH]c5cc(OC)ccc5c4CCN3C[C@@H]2C[C@H](OC(=O)c2cc(OC)c(OC)c(OC)c2)[C@H]1OC | inconclusive: 31.6 µM [inhibitor, partial curve] |
| COc1ccc(C(OCCN2CCC[C@@H](C(=O)O)C2)(c2ccc(OC)cc2)c2ccc(OC)cc2)cc1 | inconclusive: 28.2 µM [inhibitor, partial curve, poor fit] |
| NCCCCCCNS(=O)(=O)c1cccc2ccccc12 | inconclusive: 11.2 µM [inhibitor, partial curve, poor fit] |

System: CP194
Experiment: qHTS profiling for inhibitors of Plasmodium falciparum proliferation (AID 504749);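 note: 0% = DMSO vehicle and full inhibition = artemisinin control; nearly all actives have a fitted effect of over 60% in size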
Conditions: P. falciparum in erythrocytes, SYBR Green DNA, 72 h; series mostly up to 28.7 µM
How it was run: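 In a 72 h erythrocytic culture (37 C, humidified, 5% CO2) at 2.5% hematocrit and 0.3% starting parasitemia, compounds were tested; SYBR Green I in detergent lysis buffer stained parasite DNA overnight.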

| SMILES | Potency |
| --- | --- |
| CC[C@]1(C)CC(=O)NC1=O | inactive |
| CC(C)(C)NC[C@@H](O)c1ccc(O)c(CO)n1 | inactive |
| CC1(C)Oc2ccc(C#N)cc2[C@H](N2CCCC2=O)[C@H]1O | inactive |
